According to the supplement of paper PMC3334620:
Over roughly 33,000 sequences, “E-score (-0.5 to 0.5)” has its median near -0.036; the highest 2% begin near 0.37. The list shows a part of the results.

biological target: T1, Yer064c (UniProt P40041); test: PBM E-score (8-mer binding enrichment) (E-score (-0.5 to 0.5)); higher = stronger / more preferred TF binding; most listed sequences are background and not binding sites; settings: protein concentration: 200 nM; construct: GST-full length
T1 sequence: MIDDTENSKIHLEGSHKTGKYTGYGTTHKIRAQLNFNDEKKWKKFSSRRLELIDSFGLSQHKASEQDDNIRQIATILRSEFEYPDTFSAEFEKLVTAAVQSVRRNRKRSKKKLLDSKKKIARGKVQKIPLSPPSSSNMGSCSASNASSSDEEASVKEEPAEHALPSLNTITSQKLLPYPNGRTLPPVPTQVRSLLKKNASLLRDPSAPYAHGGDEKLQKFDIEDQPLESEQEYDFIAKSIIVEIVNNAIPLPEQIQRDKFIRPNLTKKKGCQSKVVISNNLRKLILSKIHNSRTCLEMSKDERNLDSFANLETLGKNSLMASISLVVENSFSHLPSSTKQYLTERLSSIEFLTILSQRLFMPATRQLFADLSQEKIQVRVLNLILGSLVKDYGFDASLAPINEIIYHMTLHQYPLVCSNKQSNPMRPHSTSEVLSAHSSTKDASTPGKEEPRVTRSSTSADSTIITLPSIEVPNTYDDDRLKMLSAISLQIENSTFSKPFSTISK
Description: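 Universal 'all 10-mer' protein binding microarrays (Agilent AMADID 015681) probed with GST-tagged S. cerevisiae TFs (full-length or DBD) made by in vitro transcription/translation (PURExpress), about 100-200 nM. Bound TF was detected with fluorescent anti-GST. Each ungapped 8-mer (which stands for itself and its reverse complement) is scored by the PBM enrichment score (E-score), a modified Wilcoxon-Mann-Whitney statistic from -0.5 to +0.5, computed with the Universal PBM Analysis Suite. Scale: above 0.35 generally sequence-specific binding.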

**Q.** For GCTCGCGA, which “PBM E-score” value is on record?
**A.** -0.0403

**Q.** GATAGGTA was tested. Which “PBM E-score” value did it give?
**A.** -0.0911

**Q.** AATCCTGG was tested. Which “PBM E-score” value did it give?
**A.** 0.0312

**Q.** CGCCGTGC was tested. Which “PBM E-score” value did it give?
**A.** -0.269

**Q.** For CCGTGAGG, which “PBM E-score” value is on record?
**A.** -0.251

**Q.** Which “PBM E-score” value does the source give for CGATACTC here?
**A.** 0.00498

**Q.** For CCCAGGCA, which “PBM E-score” value is on record?
**A.** -0.305

**Q.** How did the “PBM E-score” value turn out when AACGGCCG was run?
**A.** -0.139

**Q.** With AGACGTAC as the sequence, how does the “PBM E-score” value read?
**A.** -0.0439

**Q.** For AACCTCTC, which “PBM E-score” value is on record?
**A.** -0.192

**Q.** Which “PBM E-score” value does the source give for TGTTAGAA here?
**A.** -0.00632

**Q.** For ACACCTAT, which “PBM E-score” value is on record?
**A.** -0.123

**Q.** Which “PBM E-score” value does the source give for GCCTCTCA here?
**A.** -0.288

**Q.** For CATCCCGA, which “PBM E-score” value is on record?
**A.** 0.0689

**Q.** With GTATAAAA as the sequence, how does the “PBM E-score” value read?
**A.** 0.0365

**Q.** With GGCTGGGA as the sequence, how does the “PBM E-score” value read?
**A.** -0.202

**Q.** For GTAACTTA, which “PBM E-score” value is on record?
**A.** 0.166

**Q.** GGTTTCAC was tested. Which “PBM E-score” value did it give?
**A.** -0.11

**Q.** Which “PBM E-score” value does the source give for TCGTTAGA here?
**A.** 0.0333

**Q.** How did the “PBM E-score” value turn out when ACGAGTGA was run?
**A.** 0.0355

**Q.** ATGCGGAG was tested. Which “PBM E-score” value did it give?
**A.** -0.161

**Q.** For AGTTCTAT, which “PBM E-score” value is on record?
**A.** -0.00379

**Q.** Which “PBM E-score” value does the source give for ACAACATG here?
**A.** 0.0559

**Q.** Which “PBM E-score” value does the source give for CTGTTGGC here?
**A.** -0.169

**Q.** Which “PBM E-score” value does the source give for GTGAACAC here?
**A.** -0.0561

**Q.** Which “PBM E-score” value does the source give for ATATATTA here?
**A.** 0.104

**Q.** For GGCGCGAA, which “PBM E-score” value is on record?
**A.** -0.0884

**Q.** For AGTGACCA, which “PBM E-score” value is on record?
**A.** 0.0284

**Q.** AGTAAGTG was tested. Which “PBM E-score” value did it give?
**A.** -0.0587

**Q.** How did the “PBM E-score” value turn out when TCTTAGCA was run?
**A.** -0.078

**Q.** With ACACGCAC as the sequence, how does the “PBM E-score” value read?
**A.** -0.0662

**Q.** Which “PBM E-score” value does the source give for TCCGAACA here?
**A.** -0.0345

**Q.** Which “PBM E-score” value does the source give for AAAGGGGA here?
**A.** -0.284

**Q.** How did the “PBM E-score” value turn out when ACACTGTG was run?
**A.** -0.0233

**Q.** With CGCGCGAC as the sequence, how does the “PBM E-score” value read?
**A.** -0.0181

**Q.** Which “PBM E-score” value does the source give for CAGAAGGG here?
**A.** -0.0985

**Q.** With CCGCCAGA as the sequence, how does the “PBM E-score” value read?
**A.** -0.0157

**Q.** With GACACACA as the sequence, how does the “PBM E-score” value read?
**A.** 0.152

**Q.** How did the “PBM E-score” value turn out when ATCCGCCC was run?
**A.** -0.198

**Q.** With ACGCCACG as the sequence, how does the “PBM E-score” value read?
**A.** -0.096

**Q.** Which “PBM E-score” value does the source give for CAGCAGCC here?
**A.** -0.275

**Q.** For CCCATGCC, which “PBM E-score” value is on record?
**A.** -0.231

**Q.** With CACGCAAC as the sequence, how does the “PBM E-score” value read?
**A.** 0.0612

**Q.** AACACCTA was tested. Which “PBM E-score” value did it give?
**A.** -0.0595

**Q.** For ACGGTCAC, which “PBM E-score” value is on record?
**A.** -0.254

**Q.** GCTACCCC was tested. Which “PBM E-score” value did it give?
**A.** -0.148

**Q.** CGTACCAC was tested. Which “PBM E-score” value did it give?
**A.** -0.211

**Q.** With GATAAGCC as the sequence, how does the “PBM E-score” value read?
**A.** -0.206

**Q.** Which “PBM E-score” value does the source give for CCGCTCCA here?
**A.** -0.214

**Q.** How did the “PBM E-score” value turn out when ACCCACCG was run?
**A.** 0.0677

**Q.** GTAATCAC was tested. Which “PBM E-score” value did it give?
**A.** 0.413

**Q.** For AGCGCACA, which “PBM E-score” value is on record?
**A.** -0.116

**Q.** Which “PBM E-score” value does the source give for ATCGGGAA here?
**A.** -0.0964

**Q.** Which “PBM E-score” value does the source give for CGTAGTTA here?
**A.** -0.00038

**Q.** CCGATCAG was tested. Which “PBM E-score” value did it give?
**A.** -0.0636

**Q.** For TACCCAGA, which “PBM E-score” value is on record?
**A.** 0.117

**Q.** How did the “PBM E-score” value turn out when CACGCGTG was run?
**A.** 0.126

**Q.** How did the “PBM E-score” value turn out when ACGTTAAT was run?
**A.** 0.148

**Q.** How did the “PBM E-score” value turn out when CACCGAAC was run?
**A.** 0.0132

**Q.** Which “PBM E-score” value does the source give for AACCGTAC here?
**A.** -0.0826

**Q.** With CCCCGTTC as the sequence, how does the “PBM E-score” value read?
**A.** -0.0761

**Q.** With GCGGCCAA as the sequence, how does the “PBM E-score” value read?
**A.** -0.0571

**Q.** How did the “PBM E-score” value turn out when ATTCCTGG was run?
**A.** 0.068

**Q.** Which “PBM E-score” value does the source give for GAAGGGGA here?
**A.** -0.0816

**Q.** ATTACTAG was tested. Which “PBM E-score” value did it give?
**A.** 0.0126

**Q.** How did the “PBM E-score” value turn out when ACATGGGA was run?
**A.** -0.204

**Q.** How did the “PBM E-score” value turn out when GGCTTGTA was run?
**A.** -0.155

**Q.** With CCCGTAAA as the sequence, how does the “PBM E-score” value read?
**A.** 0.0363

**Q.** For CATATTAG, which “PBM E-score” value is on record?
**A.** 0.0202

**Q.** For AGGCTCCA, which “PBM E-score” value is on record?
**A.** -0.106

**Q.** GACCTTCC was tested. Which “PBM E-score” value did it give?
**A.** -0.217

**Q.** GTATGTAA was tested. Which “PBM E-score” value did it give?
**A.** 0.062

**Q.** How did the “PBM E-score” value turn out when GACCGGTC was run?
**A.** -0.369

**Q.** Which “PBM E-score” value does the source give for ACACGGAC here?
**A.** -0.155

**Q.** How did the “PBM E-score” value turn out when CACAATTA was run?
**A.** 0.0532

**Q.** CACACACC was tested. Which “PBM E-score” value did it give?
**A.** -0.0381

**Q.** CTCCGGCC was tested. Which “PBM E-score” value did it give?
**A.** -0.246

**Q.** How did the “PBM E-score” value turn out when CATCTCAC was run?
**A.** 0.00674

**Q.** For CTCTCTCA, which “PBM E-score” value is on record?
**A.** 0.0661

**Q.** Which “PBM E-score” value does the source give for GTCACATA here?
**A.** 0.323

**Q.** AACCGATC was tested. Which “PBM E-score” value did it give?
**A.** -0.103

**Q.** How did the “PBM E-score” value turn out when AGCACCAA was run?
**A.** -0.0459

**Q.** Which “PBM E-score” value does the source give for ACATCGTG here?
**A.** -0.0442

**Q.** With AAGGATTG as the sequence, how does the “PBM E-score” value read?
**A.** 0.0164

**Q.** Which “PBM E-score” value does the source give for AAGTTTGT here?
**A.** -0.0737

**Q.** CCATCCGC was tested. Which “PBM E-score” value did it give?
**A.** -0.118
